Data from the supplement of paper PMC4967469.
pIC50: −log10 of the molar value. The IC50 comes from the fitted curve, where viability falls to half of the control; a limit (>, <) means that the fit lies beyond the doses tested. The AUC spans the tested range (256-fold, ending at the top dose) of the same fit; the more sensitive the line, the further below 1. For some of these results: The top dose, if marked as inferred, was calculated from the reported fits.

Legend:
Test in all cases: Viability of human cancer cell lines after 72 h of drug (GDSC screen)
[1] = compound: C=C(c1ccc(C(=O)O)cc1)c1cc2c(cc1C)C(C)(C)CCC2(C)C [Bexarotene]; conditions: top dose 8 µM
Protocol: (§1)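 Human cancer cell lines in 384-well plates, medium with 10% serum, drug for 72 h over a 256-fold dose range (nine 2-fold or five 4-fold steps up to the top dose). Adherent lines were fixed and stained with the nucleic acid dye Syto60, suspension lines read with resazurin; signal relative to control wells, capped at 0 and 100%. One two-parameter sigmoid per drug and line, fitted in a mixed model over all curves with the slope shared within a line.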

[2] = compound: COc1cc(C(=O)NC2CCN(C)CC2)ccc1Nc1ncc2c(n1)N(C1CCCC1)C(C)CC(=O)N2C [NPK76-II-72-1]; conditions: top dose 10.24 µM; top dose inferred
Protocol: as §1

[3] = compound: COc1ccc(C(=O)CC2(O)C(=O)Nc3c(Cl)ccc(Cl)c32)cc1 [YK 4-279]; conditions: top dose 10 µM
Protocol: as §1

[4] = compound: Cc1ccc2nc(NCCN)c3ncc(C)n3c2c1 [BMS-345541]; conditions: top dose 16 µM
Protocol: as §1

[5] = compound: NC(=O)Nc1cc(-c2cccc(F)c2)sc1C(=O)N[C@H]1CCCNC1 [AZD7762]; conditions: top dose 2 µM
Protocol: as §1

[6] = compound: O=C(O)c1ccc(-c2c[nH]c3ncc(-c4ccccc4)cc23)cc1C1CCCC1 [GSK-650394]; conditions: top dose 16 µM; top dose inferred
Protocol: as §1

[7] = compound: Oc1nc(-c2ccc(C(F)(F)F)cc2)nc2c1CSCC2 [XAV 939]; conditions: top dose 5 µM; top dose inferred
Protocol: as §1

Cell Line | AUC [1] | pIC50 [1] | AUC [2] | pIC50 [2] | AUC [3] | pIC50 [3] | AUC [4] | pIC50 [4] | AUC [5] | pIC50 [5] | AUC [6] | pIC50 [6] | AUC [7] | pIC50 [7]
EVSA-T (breast, adherent) | 0.991 | < 5.10 | 0.776 | 5.46 | 0.719 | 5.63 | 0.907 | < 4.80 | 0.901 | 5.71 | 0.981 | < 4.80 | 0.979 | < 5.30
Farage (B-cell lymphoma, suspension) | 0.957 | < 5.10 | 0.59 | 5.97 | 0.921 | < 5.00 | 0.727 | 5.42 | 0.58 | 6.70 | 0.911 | 4.80 | 0.932 | < 5.30
G-361 (melanoma, adherent) | 0.795 | 5.45 | 0.927 | < 4.99 | 0.805 | 5.32 | 0.875 | 4.84 | 0.473 | 6.97 | 0.736 | 5.34 | 0.981 | < 5.30
GDM-1 (acute myeloid leukaemia, suspension) | 0.957 | < 5.10 | 0.474 | 6.26 | 0.739 | 5.54 | 0.641 | 5.62 | 0.508 | 6.88 | 0.502 | 6.00 | 0.976 | < 5.30
HCC202 (breast, adherent) | 0.941 | < 5.10 | 0.897 | < 4.99 | 0.866 | < 5.00 | 0.848 | < 4.80 | 0.92 | < 5.70 | 0.868 | < 4.80 | 0.935 | < 5.30
HCC1954 (breast, adherent) | 0.983 | < 5.10 | 0.984 | < 4.99 | 0.779 | 5.32 | 0.727 | 5.30 | 0.884 | < 5.70 | 0.931 | < 4.80 | 0.973 | < 5.30
HCC-827 (lung adenocarcinoma, adherent) | 0.863 | < 5.10 | 0.972 | < 4.99 | 0.944 | < 5.00 | 0.906 | < 4.80 | 0.693 | 6.32 | 0.982 | < 4.80 | 0.978 | < 5.30
HT (B-cell lymphoma, suspension) | 0.912 | < 5.10 | 0.787 | 5.39 | 0.879 | 5.06 | 0.835 | 5.03 | 0.741 | 6.24 | 0.963 | < 4.80 | 0.85 | 5.48
HT-1080 (fibrosarcoma, adherent) | 0.964 | < 5.10 | 0.984 | < 4.99 | 0.639 | 5.84 | 0.974 | < 4.80 | 0.701 | 6.37 | 0.757 | 5.30 | 0.976 | < 5.30
HuH-7 (liver, adherent) | 0.972 | < 5.10 | 0.977 | < 4.99 | 0.714 | 5.60 | 0.987 | < 4.80 | 0.796 | 6.03 | 0.854 | 4.90 | 0.902 | < 5.30
IPC-298 (melanoma, adherent) | 0.934 | < 5.10 | 0.943 | < 4.99 | 0.765 | 5.44 | 0.907 | < 4.80 | 0.516 | 6.86 | 0.977 | < 4.80 | 0.983 | < 5.30
IST-MEL1 (melanoma, adherent) | 0.93 | < 5.10 | 0.912 | < 4.99 | 0.609 | 5.88 | 0.858 | < 4.80 | 0.617 | 6.55 | 0.863 | < 4.80 | 0.932 | < 5.30
KARPAS-422 (B-cell lymphoma, suspension) | 0.983 | < 5.10 | 0.906 | < 4.99 | 0.961 | < 5.00 | 0.854 | 4.91 | 0.688 | 6.38 | 0.912 | < 4.80 | 0.971 | < 5.30
L-363 (myeloma, suspension) | 0.967 | < 5.10 | 0.736 | 5.57 | 0.765 | 5.49 | 0.838 | 5.06 | 0.473 | 6.97 | 0.977 | < 4.80 | 0.98 | < 5.30
LB2518-MEL (melanoma, adherent) | 0.901 | < 5.10 | 0.97 | < 4.99 | 0.727 | 5.54 | 0.853 | 4.87 | 0.898 | < 5.70 | 0.916 | < 4.80 | 0.986 | < 5.30
LP-1 (myeloma, suspension) | 0.983 | < 5.10 | 0.891 | 5.08 | 0.989 | < 5.00 | 0.872 | 4.96 | 0.993 | < 5.70 | 0.981 | < 4.80 | 0.991 | < 5.30
LS-411N (large intestine, adherent) | 0.877 | < 5.10 | 0.832 | 5.06 | 0.802 | 5.21 | 0.753 | 5.19 | 0.684 | 6.34 | 0.807 |  | 0.964 | < 5.30
MDA-MB-231 (breast, adherent) | 0.944 | < 5.10 | 0.986 | < 4.99 | 0.82 | 5.21 | 0.913 | < 4.80 | 0.872 | < 5.70 | 0.941 | < 4.80 | 0.956 | < 5.30
ML-2 (acute myeloid leukaemia, suspension) | 0.941 | < 5.10 | 0.443 | 6.34 | 0.685 | 5.72 | 0.643 | 5.63 | 0.674 | 6.45 | 0.941 | < 4.80 | 0.975 | < 5.30
